# Measurements taken from the supplement of paper PMC8728848.
# This is one part of the list.
# B1: Gal 8 (Homo sapiens), O00214 (protein)
# chain: MMLSLNNLQNIIYNPVIPFVGTIPDQLDPGTLIVIRGHVPSDADRFQVDLQNGSSMKPRADVAFHFNPRFKRAGCIVCNTLINEKWGREEITYDTPFKREKSFEIVIMVKDKFQVAVNGKHTLLYGHRIGPEKIDTLGIYGKVNIHSIGFSFSSDLQSTQASSLELTEISRENVPKSGTPQLPSNRGGDISKIAPRTVYTKSKDSTVNHTLTCTKIPPMNYVSKRLPFAARLNTPMGPGRTVVVKGEVNANAKSFNVDLLAGKSKDIALHLNPRLNIKAFVRNSFLQESWGEEERNITSFPFSPGMYFEMIIYCDVREFKVAVNGVHSLEYKHRFKELSSIDTLEINGDIHLLEVRSW
# Experiments:
# Assay in all cases: glycan array binding signal (z-score within array); higher = stronger binding
# Settings in all cases: glycan notation: IUPAC condensed, linker removed
# [1] = biological target: Neu5Ac(a2-3)Gal(b1-3)[Fuc(a1-4)]GlcNAc
# Outline: (§1)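 Glycan array data were curated from 3228 arrays in the Consortium for Functional Glycomics database and kept only where the protein sequence was available. Glycan names were converted to IUPAC-condensed notation, and columns mapping to the same glycan were averaged. The binding signal is a within-array Z-score, averaged across arrays of the same protein sequence at different concentrations or buffers and across linkers. Negative Z-scores can be read as non-binding.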
# [2] = biological target: Neu5Ac(a2-3)Gal(b1-3)[Fuc(a1-4)]GlcNAc(b1-3)Gal(b1-4)[Fuc(a1-3)]GlcNAc
# Outline: as §1
# [3] = biological target: Neu5Ac(a2-3)Gal(b1-3)[Neu5Ac(a2-3)Gal(b1-4)]GlcNAc
# Outline: as §1
# [4] = biological target: Neu5Ac(a2-3)Gal(b1-3)[Neu5Ac(a2-6)]GalNAc
# Outline: as §1
# [5] = biological target: Neu5Ac(a2-3)Gal(b1-4)Glc
# Outline: as §1
# [6] = biological target: Neu5Ac(a2-3)Gal(b1-4)GlcNAc
# Outline: as §1
# [7] = biological target: Neu5Ac(a2-3)Gal(b1-4)GlcNAc(b1-2)Man(a1-3)[GlcNAc(b1-2)Man(b1-4)GlcNAc(b1-2)Man(a1-6)]Man(b1-4)GlcNAc(b1-4)GlcNAc
# Outline: as §1
# [8] = biological target: Neu5Ac(a2-3)Gal(b1-4)GlcNAc(b1-2)Man(a1-3)[Neu5Ac(a2-6)Gal(b1-4)GlcNAc(b1-2)Man(a1-6)]Man(b1-4)GlcNAc(b1-4)GlcNAc
# Outline: as §1
# [9] = biological target: Neu5Ac(a2-3)Gal(b1-4)GlcNAc(b1-3)Gal(b1-3)GlcNAc
# Outline: as §1
# [10] = biological target: Neu5Ac(a2-3)Gal(b1-4)GlcNAc(b1-3)Gal(b1-4)GlcNAc
# Outline: as §1
# [11] = biological target: Neu5Ac(a2-3)Gal(b1-4)GlcNAc(b1-3)Gal(b1-4)GlcNAc(b1-3)Gal(b1-4)GlcNAc
# Outline: as §1
# [12] = biological target: Neu5Ac(a2-3)Gal(b1-4)GlcNAc(b1-3)Gal(b1-4)[Fuc(a1-3)]GlcNAc
# Outline: as §1
# [13] = biological target: Neu5Ac(a2-3)Gal(b1-4)GlcNAc(b1-6)[Gal(b1-3)]GalNAc
# Outline: as §1
# [14] = biological target: Neu5Ac(a2-3)Gal(b1-4)GlcNAc(b1-6)[Neu5Ac(a2-3)Gal(b1-3)]GalNAc
# Outline: as §1
# [15] = biological target: Neu5Ac(a2-3)Gal(b1-4)GlcNAc6S
# Outline: as §1
# [16] = biological target: Neu5Ac(a2-3)Gal(b1-4)[Fuc(a1-3)]GlcNAc
# Outline: as §1
# [17] = biological target: Neu5Ac(a2-3)Gal(b1-4)[Fuc(a1-3)]GlcNAc(b1-3)Gal
# Outline: as §1
# [18] = biological target: Neu5Ac(a2-3)Gal(b1-4)[Fuc(a1-3)]GlcNAc(b1-3)Gal(b1-4)GlcNAc
# Outline: as §1
# [19] = biological target: Neu5Ac(a2-3)Gal(b1-4)[Fuc(a1-3)]GlcNAc(b1-3)Gal(b1-4)[Fuc(a1-3)]GlcNAc(b1-3)Gal(b1-4)[Fuc(a1-3)]GlcNAc
# Outline: as §1
# [20] = biological target: Neu5Ac(a2-3)Gal(b1-4)[Fuc(a1-3)]GlcNAc(b1-6)[Gal(b1-3)]GalNAc
# Outline: as §1
# [21] = biological target: Neu5Ac(a2-3)Gal(b1-4)[Fuc(a1-3)]GlcNAc6S
# Outline: as §1
# [22] = biological target: Neu5Ac(a2-3)Gal6S(b1-4)GlcNAc
# Outline: as §1
# [23] = biological target: Neu5Ac(a2-3)Gal6S(b1-4)[Fuc(a1-3)]GlcNAc
# Outline: as §1
# [24] = biological target: Neu5Ac(a2-3)GalNAc
# Outline: as §1
# [25] = biological target: Neu5Ac(a2-3)GalNAc(b1-4)GlcNAc
# Outline: as §1
# [26] = biological target: Neu5Ac(a2-3)[GalNAc(b1-4)]Gal(b1-4)Glc
# Outline: as §1
# [27] = biological target: Neu5Ac(a2-3)[GalNAc(b1-4)]Gal(b1-4)GlcNAc
# Outline: as §1
# [28] = biological target: Neu5Ac(a2-3)[Neu5Ac(a2-6)]GalNAc
# Outline: as §1
# [29] = biological target: Neu5Ac(a2-6)Gal
# Outline: as §1
# [30] = biological target: Neu5Ac(a2-6)Gal(b1-4)Glc
# Outline: as §1
# [31] = biological target: Neu5Ac(a2-6)Gal(b1-4)GlcNAc
# Outline: as §1
# [32] = biological target: Neu5Ac(a2-6)Gal(b1-4)GlcNAc(b1-2)Man(a1-3)[Gal(b1-4)GlcNAc(b1-2)Man(a1-6)]Man(b1-4)GlcNAc(b1-4)GlcNAc
# Outline: as §1
# [33] = biological target: Neu5Ac(a2-6)Gal(b1-4)GlcNAc(b1-2)Man(a1-3)[GlcNAc(b1-2)Man(a1-6)]Man(b1-4)GlcNAc(b1-4)GlcNAc
# Outline: as §1
# [34] = biological target: Neu5Ac(a2-6)Gal(b1-4)GlcNAc(b1-2)Man(a1-3)[GlcNAc(b1-2)Man(b1-4)GlcNAc(b1-2)Man(a1-6)]Man(b1-4)GlcNAc(b1-4)GlcNAc
# Outline: as §1
# [35] = biological target: Neu5Ac(a2-6)Gal(b1-4)GlcNAc(b1-2)Man(a1-3)[Neu5Ac(a2-6)Gal(b1-4)GlcNAc(b1-2)Man(a1-6)]Man(b1-4)GlcNAc(b1-4)GlcNAc
# Outline: as §1
# [36] = biological target: Neu5Ac(a2-6)Gal(b1-4)GlcNAc(b1-2)Man(a1-6)[Gal(b1-4)GlcNAc(b1-2)Man(a1-3)]Man(b1-4)GlcNAc(b1-4)GlcNAc
# Outline: as §1
# [37] = biological target: Neu5Ac(a2-6)Gal(b1-4)GlcNAc(b1-2)Man(a1-6)[GlcNAc(b1-2)Man(a1-3)]Man(b1-4)GlcNAc(b1-4)GlcNAc
# Outline: as §1
# [38] = biological target: Neu5Ac(a2-6)Gal(b1-4)GlcNAc(b1-3)Gal(b1-4)GlcNAc
# Outline: as §1
# [39] = biological target: Neu5Ac(a2-6)Gal(b1-4)GlcNAc(b1-3)Gal(b1-4)[Fuc(a1-3)]GlcNAc(b1-3)Gal(b1-4)[Fuc(a1-3)]GlcNAc
# Outline: as §1
# [40] = biological target: Neu5Ac(a2-6)Gal(b1-4)GlcNAc6S
# Outline: as §1
# [41] = biological target: Neu5Ac(a2-6)GalNAc
# Outline: as §1
# [42] = biological target: Neu5Ac(a2-6)GalNAc(b1-4)GlcNAc
# Outline: as §1
# [43] = biological target: Neu5Ac(a2-8)Neu5Ac
# Outline: as §1
# [44] = biological target: Neu5Ac(a2-8)Neu5Ac(a2-3)Gal(b1-4)Glc
# Outline: as §1
# [45] = biological target: Neu5Ac(a2-8)Neu5Ac(a2-3)[GalNAc(b1-4)]Gal(b1-4)Glc
# Outline: as §1
# [46] = biological target: Neu5Ac(a2-8)Neu5Ac(a2-8)Neu5Ac
# Outline: as §1
# [47] = biological target: Neu5Ac(a2-8)Neu5Ac(a2-8)Neu5Ac(a2-3)Gal(b1-4)Glc
# Outline: as §1
# [48] = biological target: Neu5Ac(a2-8)Neu5Ac(a2-8)Neu5Ac(a2-3)[GalNAc(b1-4)]Gal(b1-4)Glc
# Outline: as §1
# [49] = biological target: Neu5Ac(a2-8)Neu5Ac(a2-8)Neu5Ac(a2-8)Neu5Ac(a2-3)[GalNAc(b1-4)]Gal(b1-4)Glc
# Outline: as §1
# [50] = biological target: Neu5Ac(b2-6)Gal(b1-4)GlcNAc
# Outline: as §1
# [51] = biological target: Neu5Ac(b2-6)GalNAc
# Outline: as §1
# [52] = biological target: Neu5Ac9Ac(a2-6)Gal(b1-4)GlcNAc
# Outline: as §1
# [53] = biological target: Neu5Gc(a2-3)Gal(b1-3)GlcNAc
# Outline: as §1
# [54] = biological target: Neu5Gc(a2-3)Gal(b1-3)[Fuc(a1-4)]GlcNAc
# Outline: as §1
# [55] = biological target: Neu5Gc(a2-3)Gal(b1-4)Glc
# Outline: as §1
# [56] = biological target: Neu5Gc(a2-3)Gal(b1-4)GlcNAc
# Outline: as §1
# [57] = biological target: Neu5Gc(a2-3)Gal(b1-4)[Fuc(a1-3)]GlcNAc
# Outline: as §1
# [58] = biological target: Neu5Gc(a2-6)Gal(b1-4)GlcNAc
# Outline: as §1
# [59] = biological target: Neu5Gc(a2-6)GalNAc
# Outline: as §1
# [60] = biological target: Neu5Gc(b2-6)Gal(b1-4)GlcNAc
# Outline: as §1
binder,measurement,setting,value
B1,glycan array binding signal (z-score),[1],-0.352
same,glycan array binding signal (z-score),[2],-0.382
same,glycan array binding signal (z-score),[3],-0.423
same,glycan array binding signal (z-score),[4],-0.374
same,glycan array binding signal (z-score),[5],0.268
same,glycan array binding signal (z-score),[6],-0.178
same,glycan array binding signal (z-score),[7],0.146
same,glycan array binding signal (z-score),[8],-0.429
same,glycan array binding signal (z-score),[9],0.136
same,glycan array binding signal (z-score),[10],0.109
same,glycan array binding signal (z-score),[11],1.28
same,glycan array binding signal (z-score),[12],0.629
same,glycan array binding signal (z-score),[13],0.196
same,glycan array binding signal (z-score),[14],0.32
same,glycan array binding signal (z-score),[15],0.295
same,glycan array binding signal (z-score),[16],-0.426
same,glycan array binding signal (z-score),[17],-0.429
same,glycan array binding signal (z-score),[18],-0.392
same,glycan array binding signal (z-score),[19],-0.431
same,glycan array binding signal (z-score),[20],-0.41
same,glycan array binding signal (z-score),[21],-0.429
same,glycan array binding signal (z-score),[22],-0.415
same,glycan array binding signal (z-score),[23],-0.42
same,glycan array binding signal (z-score),[24],-0.426
same,glycan array binding signal (z-score),[25],-0.378
same,glycan array binding signal (z-score),[26],-0.452
same,glycan array binding signal (z-score),[27],-0.435
same,glycan array binding signal (z-score),[28],-0.405
same,glycan array binding signal (z-score),[29],-0.417
same,glycan array binding signal (z-score),[30],-0.083
same,glycan array binding signal (z-score),[31],-0.436
same,glycan array binding signal (z-score),[32],0.187
same,glycan array binding signal (z-score),[33],-0.45
same,glycan array binding signal (z-score),[34],-0.405
same,glycan array binding signal (z-score),[35],-0.421
same,glycan array binding signal (z-score),[36],-0.001
same,glycan array binding signal (z-score),[37],-0.442
same,glycan array binding signal (z-score),[38],0.936
same,glycan array binding signal (z-score),[39],-0.365
same,glycan array binding signal (z-score),[40],-0.432
same,glycan array binding signal (z-score),[41],-0.443
same,glycan array binding signal (z-score),[42],-0.432
same,glycan array binding signal (z-score),[43],-0.419
same,glycan array binding signal (z-score),[44],0.767
same,glycan array binding signal (z-score),[45],-0.427
same,glycan array binding signal (z-score),[46],-0.438
same,glycan array binding signal (z-score),[47],0.518
same,glycan array binding signal (z-score),[48],-0.415
same,glycan array binding signal (z-score),[49],-0.414
same,glycan array binding signal (z-score),[50],-0.42
same,glycan array binding signal (z-score),[51],-0.406
same,glycan array binding signal (z-score),[52],-0.454
same,glycan array binding signal (z-score),[53],0.37
same,glycan array binding signal (z-score),[54],-0.41
same,glycan array binding signal (z-score),[55],0.213
same,glycan array binding signal (z-score),[56],-0.386
same,glycan array binding signal (z-score),[57],-0.423
same,glycan array binding signal (z-score),[58],-0.444
same,glycan array binding signal (z-score),[59],-0.439
same,glycan array binding signal (z-score),[60],-0.452
